Laboratory results reported in the supplement of paper PMC3724861.
Some of the results follow.

These sequences were tested on T1, Caupolican (Caup) homeodomain DNA-binding domain (assay: PBM E-score (8-mer, recovered from the published 9-mer minima) (E-score (dimensionless, -0.5 to 0.5)); Drosophila protein; higher = stronger relative binding preference, active = 0.31 or more).
T1 sequence: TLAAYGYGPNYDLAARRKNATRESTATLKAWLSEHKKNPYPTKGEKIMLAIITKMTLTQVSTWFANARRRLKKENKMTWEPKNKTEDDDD
How it was run: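 Caup's homeodomain DNA-binding domain (residues 214-303) was made by in vitro transcription and translation and applied at 100 nM to custom-designed protein binding microarrays. Each value is an enrichment score that gives relative binding preference for a short DNA word, with higher meaning stronger. The 8-mer values were recovered from published 9-mer scores, each of which was the minimum of its two constituent 8-mer scores. A cutoff of 0.31 marks candidate sites.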

PBM E-score, ≥ 0.0147:
AAAACGCT

PBM E-score, ≥ 0.28:
ATATATAT

PBM E-score, ≥ 0.164:
TCTTATCA

PBM E-score, ≥ 0.218:
TACAGTGA

PBM E-score, ≥ 0.104:
ACTTACGA

PBM E-score, ≥ 0.00537:
ACGGCTAT

PBM E-score, ≥ 0.0886:
AAAGATTC

PBM E-score, ≥ 0.182:
TAGTCACA

PBM E-score, inactive:
ACCGTCCA -0.166, CAACTATA 0.129, AGGAATTC -0.0383, TGAATTAA 0.101, CCTTCACC -0.199, AGATTGGG -0.00878, ACGGGGTG -0.0587, ACAAGCTA 0.275, ACGAGCCG -0.0432, CGACGGCC -0.133, AATGTTTA 0.213, CGATTTAC 0.0251, ATTACCCA 0.103, GATCGCCC -0.0925, ACTAGGTC 0.038, ATAGAAAT 0.114, CGACTATC -0.0393, CATACTTA 0.153, GGCTCTCA -0.209, CCCTCCGA -0.235, AATCTGAC 0.138, AGTGATTA 0.1, TAATGAGA 0.0965, CCTGGTCC -0.159, TAGGGCGA -0.0721, CAAGTCTA 0.0856, CGCGCAGC -0.165, CTCTGATA 0.0146, CCTATTCG -0.113, TAGCCCTA -0.0874, AAGATCAG -0.0552, ACTCTAGC -0.174, CTTTTCTC -0.0505, CTGTGTCC 0.172, ACCGTCTA -0.108, AACACGCT 0.267, AATCATAC 0.157, GAGCACGC -0.14, AAAGTCGA -0.0806, ACCGGGTA -0.0429, CAGCATGA 0.117, AAATATCT 0.14, AAGACACA 0.196, GTCCCGAA -0.047, CGTCCAAC 0.0437, ACCGCGTG -0.111, CTAGGCTC -0.209, ATATCAAC 0.111, GCTCACAA 0.0103, AGAACGAG 0.108, CCATCATC 0.0538, AACGCTAG -0.1, ACGTCTCT -0.116, CCCCCGCC -0.378, GACACAGC 0.157, AGAGTTAT 0.0566, GACGAGTA 0.08, CTTTTAGA -0.0649, CCAAGTAA 0.0669, GTGCCCAC -0.155, AACACCCC 0.0993, GCTTTGCA -0.133, CTGGCGCA -0.206, CTTACGGC -0.188, AACCTTTA 0.0158, CCGTCCTC -0.166, AAACCGGA 0.0214, TAGGAGGA -0.0127, CCCTGGCA -0.203, ACCTCAAA -0.032, GGAACTAC 0.0255, CGGGAAGC -0.102, GAAAAACA 0.217, CACCCGCC -0.0866, CAGTGTAG 0.171, ATAACCTC 0.0841, ATAGTATG 0.157, AGGGTGGA -0.164, GGGAGCAA -0.103, GCCACGGC -0.241, AGTCGTAA 0.0717, GCTCCAGC -0.186, CATACAGC 0.0231, CCCAAGCA -0.0938, GAAGCTCC -0.207, GACGCTTA -0.058, ACACTAGG 0.0687, CTCCATAC -0.0486, GGGTACAC 0.14, AAAACCAC 0.0457, GCGCGTGA -0.13, CTCTTGTA 0.299, CCTCTCTA -0.218, GGCACGGA -0.0745, GTCGCAAC 0.0137, CTAACATA 0.28, AAGGTGAC 0.0671, GGATAATA 0.042, GGTGGAAA -0.0874, GTGCCTCA -0.266, GTCCTTTA 0.0147, CGCGCCAG -0.304, ACCTCGTC 0.0147, GGCGGGAC -0.206, AGGACCAC -0.0375, GATTCCAC 0.045, ACGTAGAT 0.102, GGCTTCGA -0.14, CACAAAGA 0.0433, AAGGACAC 0.147, ACTGTCGC -0.026, GGTAAAAA 0.0552, TATCCAAA 0.133, TCTGATAA 0.134, GCTAAAGA 0.0318, CTCTGTTC 0.119, CTAGAAAA 0.0157, CGATGGGC -0.165, ATGAGCTC -0.0796, CAATACTC 0.142, CACGCGGC -0.117, CCGTTGTC 0.183, GGGCTCGA -0.143, AAAATTGG -0.0443, CACGGCGC -0.084, AACACAGA 0.248, CTGGTTGC -0.00962, CAGTAGAC 0.0172, GAATTAAC 0.12, GGTGGTTA 0.0166, CCCCCGAA -0.174, AAAGGAAT 0.0889, AGCTGGCC -0.176, GCGATTTA -0.0705, GATAGGGC -0.174, GAATCTAA 0.00078, CATCCTAC 0.0299, AGCCACTG -0.117, GGTTGCAC 0.0564, GAGCCTCA -0.214, CTAAGGAG -0.251, CCCGTATC -0.0196, GCCGGAAA -0.0982, TGCAGCCA -0.0784, CTAGTGAC 0.0755, AGCCTTCA -0.119, CGCAGTAG -0.118, CATGAGCC -0.00819, ATTGGGGA -0.0647, AATCACTA 0.0509, AGGACGAA -0.0156, AATGCCGT -0.0301, CATTGCAA 0.0755, TAAAGCAA 0.0811, CTCGCCCA -0.135, GGTACAAA 0.256, CTCGATGA 0.0198, CGCATCGA -0.0433, AACACCTC 0.122, TATCACCA 0.111, AGCCAGCT -0.123, ATTGTCCG 0.122, CCATAGCG -0.107, AATTGCCA 0.00324, AAGGGCTG -0.198, CCGATATC 0.0407, AATACAAA 0.284, ACGCGGTG -0.101, GAAGATGC -0.152, AGATTGGA 0.0439, CCTATACC -0.0691, GGCGATCA -0.042, CAGACAGG 0.0281, GAACCTAA -0.0651, GGAGGGAA -0.186, CGCCAAAC -0.0574, AACAAGGC 0.292, CACGATTC 0.153, GCTCGACA 0.0642, CAGGCCTC -0.158, GACTTCCC -0.156, CGAAACAC 0.101, TACTGCAA 0.125, ACCTGGAG 0.037, AACTTGCT 0.0485, TATTCCGA 0.0967, ATTACGTC 0.109, CGCATAAC -0.0228, TGCAGGCA -0.0274, ACCCTTGG -0.124, TCCAGCCA -0.0664, CCAATCGC -0.0369, AGCAAGGC -0.12, ACAAGTCA 0.226, GGCATAAC 0.0348, CTGTCGGA 0.15, ACACGTGG 0.214, AGATGCTA 0.0221, ATGACAGG 0.117, AAATGCAT 0.0673, GTGCCGGA -0.178, CCGTCTCG -0.0932, CTAGAGGC -0.132, AGTGCAGC -0.0939, ACGATCGA 0.109, AATATGAT 0.0857, AGTGACGC -0.155, GTTCCTGA 0.0212, CGCTTTTA -0.0253, ATCACGGC -0.0188, GAGTAAGA 0.047, GGACGGGA -0.132, AACCACTA 0.13

PBM E-score, ≥ -0.043:
TCCAGGCA

PBM E-score, ≥ 0.0283:
ATCCCCAA

PBM E-score, active:
CGATGTCA 0.311, AACATGGG 0.351
